{"source": "PubChem BioAssay AID686979", "about": "(National Center for Advancing Translational Sciences (NCATS), 2013)", "note": "In all, about 420,000 compounds went through this assay and about 50,000 (12%) were called active. The inconclusive results got no clear call from the source; some entries with a clear call stand among them for comparison. The call rests on the fitted dose curve; in most records, active means well fitted inhibition curve with a large enough effect; inconclusive means small, poorly fitted or top-dose-only effect; inactive means flat fitted curve, though single readings scatter. No potency is given beside an inconclusive call; the fits are too rough. On the % scale 0 is the no-effect control and ±100 the full control effect; potency means the concentration at half of the fitted maximal effect; tags describe the fitted curve by direction and shape."}
{"experiment": "qHTS for Inhibitors of human tyrosyl-DNA phosphodiesterase 1 (TDP1): qHTS in cells in presence of CPT; further: nearly all actives have a fitted effect of over 55% in size", "conditions": "chicken DT40 Tdp1-/-;hTDP1 cells + 20 nM CPT, ATP luminescence, 48 h; activity change, negative = growth inhibition: at 46.2 µM (top of the series) unless noted", "summary_of_the_method": "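Chicken DT40 Tdp1-/- cells stably complemented with human TDP1 were seeded at 400 cells/well in medium containing 20 nM camptothecin, exposed to pin-transferred compounds, and grown at 37 °C for at least 48 hr. Viability was read as ATP luminescence.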"}
{"smiles": "CCOc1ccc(C(CC(=O)O)NS(=O)(=O)c2ccc(C)cc2)cc1OC", "note": "(configuration not stated)", "Potency": "active: 20.6 µM"}
{"smiles": "N#C/C(=C\\Nc1ccccc1SC(F)(F)F)c1nc(-c2ccc(F)cc2)cs1", "activity change, negative = growth inhibition": "inactive: -12.5%"}
{"smiles": "CC1=C(C(=O)Nc2cc(C(=O)N(C)Cc3ccccc3)ccc2C)SCCO1", "activity change, negative = growth inhibition": "inactive: -25.1%"}
{"smiles": "CCCCCCNCc1c(F)cccc1Cl", "activity change, negative = growth inhibition": "inactive: 0.29%"}
{"smiles": "CN(CCCN1CCOCC1)C(=O)c1cc(COc2cccc(C(F)(F)F)c2)on1", "Potency": "inconclusive [inhibitor, full curve, poor fit]"}
{"smiles": "Cc1cc(C)n(CC(=O)N2CCCC(N3CCN(c4ccc(F)cc4)CC3)C2)n1", "note": "(configuration not stated)", "activity change, negative = growth inhibition": "inactive: -13.7%"}
{"smiles": "O=C(c1ccc2ccccc2c1O)N1CCCCC1", "Potency": "inconclusive [inhibitor, single point]"}
{"smiles": "COc1ccc2c(c1)OC[C@H]1[C@H]2N2C(=O)c3ccc(F)cc3NC(=O)[C@@]2(C)[C@H]1c1ccccc1", "Potency": "active: 18.4 µM"}
{"smiles": "O=S(=O)(c1ccc(Br)cc1)n1ccc2ccccc21", "Potency": "active: 13 µM"}
{"smiles": "NC(=O)c1ccc[n+]([C@@H]2OC(COP(=O)([O-])OP(=O)(O)OCC3OC(n4cnc5c(N)ncnc54)C(OP(=O)(O)O)C3O)C(O)C2O)c1", "note": "(some centres not stated)", "Potency": "inconclusive [inhibitor, single point]"}
{"smiles": "COc1cc2nc(NC3CCN(Cc4ccccc4)CC3)nc(N3CCCN(C)CC3)c2cc1OC", "Potency": "active: 5.01 µM"}
{"smiles": "Fc1ccc(NC(=S)NN2CCOCC2)cc1Cl", "activity change, negative = growth inhibition": "inactive: 14%"}
{"smiles": "CCOC(=O)C(CSCc1ccccc1)NC(=O)OC(C)(C)C", "note": "(configuration not stated)", "Potency": "inconclusive [inhibitor, partial curve, poor fit]"}
{"smiles": "CN1CCCC1CCNc1ccc2c(=O)c3ccccc3oc2c1", "note": "(configuration not stated)", "Potency": "inconclusive [inhibitor, single point]"}
{"smiles": "COc1ccc(OC)c(NC(=O)c2cccc(S(=O)(=O)N(Cc3ccccc3)c3ccccc3OC)c2)c1", "Potency": "active: 6.51 µM"}
{"smiles": "CCCCC/S(CC1CC1(Cl)Cl)=N\\S(=O)(=O)c1ccc(C)cc1", "note": "(configuration not stated)", "activity change, negative = growth inhibition": "inactive: -3.28%"}
{"smiles": "CCC(=O)Nc1nnc(SCC(=O)NCCc2ccc(OC)c(OC)c2)s1", "activity change, negative = growth inhibition": "inactive: -7.34%"}
{"smiles": "COC(=O)[C@]12CCCCC=C1N(CCc1ccc(OC)c(OC)c1)C(=O)[C@H](CC(=O)NCc1ccc(C)o1)C2", "Potency": "active: 16.4 µM"}
{"smiles": "COC(=O)c1c(C)[nH]c(C(=O)/C=C/c2ccc(Cl)cc2)c1C", "Potency": "inconclusive [inhibitor, single point]"}
{"smiles": "Cc1ccc2c(c1)-c1c(cnn1CC(=O)N1CCN(c3cccc(C(F)(F)F)c3)CC1)CO2", "Potency": "inconclusive [inhibitor, single point]"}
{"smiles": "Cc1noc(C)c1-c1cc(N2CCNCC2)ncn1", "activity change, negative = growth inhibition": "inactive: -16.3%"}
{"smiles": "Cc1ccc2c(c1)C(c1ccccc1)N(C(=O)c1ccc(Br)o1)CC(=O)N2", "note": "(configuration not stated)", "Potency": "active: 20.6 µM"}
{"smiles": "COc1ccccc1-c1csc(C(C)(O)c2cccc(F)c2)n1", "note": "(configuration not stated)", "Potency": "active: 13 µM"}
{"smiles": "C1=CC2CC1CC2CN1CCN(Cc2ccccc2)CC1", "note": "(configuration not stated)", "Potency": "inconclusive [inhibitor, partial curve, poor fit]"}
{"smiles": "CCc1cccc(C)c1NS(=O)(=O)c1ccc2c(c1)NC(=O)C(C)C(=O)N2", "note": "(configuration not stated)", "Potency": "inconclusive [inhibitor, single point]"}
{"smiles": "O=C(NNC(=S)NC1CC2CCC1C2)c1ccc(Cl)cc1", "note": "(configuration not stated)", "activity change, negative = growth inhibition": "inconclusive: -33.7% [inhibitor]"}
{"smiles": "Cc1ccc(C(=O)NCc2cccc(C(F)(F)F)c2)cc1S(=O)(=O)N1CCCCC1", "Potency": "inconclusive [inhibitor, single point]"}
{"smiles": "O=C(NCc1cccc(Cl)c1)C1CCN(c2nn3cc(-c4ccc(F)cc4)nc3s2)CC1", "Potency": "inconclusive [inhibitor, partial curve]"}
{"smiles": "COc1ccc(-c2cn3nc(N4CCCC(C(=O)Nc5cc(Cl)ccc5OC)C4)sc3n2)cc1", "note": "(configuration not stated)", "Potency": "inconclusive [inhibitor, partial curve]"}
{"smiles": "O=C(Nc1nnc([C@@H]2C[C@H](O)[C@@H](CO)O2)s1)Nc1ccccc1C(F)(F)F", "activity change, negative = growth inhibition": "inactive: -7.52%"}
{"smiles": "O=c1c2cc(Cl)ccc2nc(-c2ccc([N+](=O)[O-])cc2)n1O", "Potency": "inconclusive [inhibitor, single point]"}
{"smiles": "CCc1ccccc1NC(=O)COC(=O)c1c(C)nsc1NC", "Potency": "active: 7.31 µM"}
{"smiles": "CN1CCN(S(=O)(=O)c2cccc(C(=O)Nc3ccccc3N3CCCC3)c2)CC1", "activity change, negative = growth inhibition": "inactive: -25.5%"}
{"smiles": "COc1ccc(NC(=O)/C=C/c2ccc(OC)c(OC)c2)cn1", "activity change, negative = growth inhibition": "inactive: -20.8%"}
{"smiles": "CC(NC(=O)C(=O)N1CCCCC1)C(c1cccs1)N1CCN(c2ccc(F)cc2)CC1", "note": "(configuration not stated)", "Potency": "inconclusive [inhibitor, single point]"}
{"smiles": "Cc1ccc(CNC(=O)c2c(-c3ccc(F)cc3F)noc2C)o1", "activity change, negative = growth inhibition": "inactive: -25%"}
{"smiles": "CCN(CC)c1ccc2cc(-c3nc(-c4ccccc4)no3)c(=O)oc2c1", "Potency": "inconclusive [inhibitor, full curve]"}
{"smiles": "Cc1nc2c(-c3ccccc3)c(C)[nH]n2c(=O)c1Cl", "activity change, negative = growth inhibition": "inactive: -0.299%"}
{"smiles": "O=S(=O)(c1ccccc1)c1ccc(N2CCCCCC2)cc1", "Potency": "inconclusive [inhibitor, single point]"}
{"smiles": "CCOc1ccc(S(=O)(=O)Nc2nc3ccccc3nc2Nc2ccc(N3CCOCC3)cc2)cc1", "Potency": "inconclusive [inhibitor, single point]"}
{"smiles": "COc1ccccc1NC(=O)C(C)N(C)Cc1ccc(Cl)s1", "note": "(configuration not stated)", "Potency": "inconclusive [inhibitor, single point]"}
{"smiles": "COC(=O)C1CCN(c2nc3ccccc3nc2C(C#N)C(=O)OCC(C)C)CC1", "note": "(configuration not stated)", "Potency": "active: 23.1 µM"}
{"smiles": "Cc1ccc(N(CC(=O)Nc2cc(Cl)ccc2Oc2ccccc2)S(C)(=O)=O)cc1C", "Potency": "inconclusive [inhibitor, single point]"}
{"smiles": "CSc1ccc(CNC(=O)c2ccc3c(c2)N(C)C(=O)C2CCCCN32)cc1", "note": "(configuration not stated)", "Potency": "inconclusive [inhibitor, single point]"}
{"smiles": "Cn1cnnc1SCC(=O)NC1CCCC1", "activity change, negative = growth inhibition": "inactive: 15.6%"}
{"smiles": "COC(=O)/C=c1\\[nH]c2nnc(C)n2c1=O", "activity change, negative = growth inhibition": "inactive: -1.36%"}
{"smiles": "O=C(NCc1ccccc1)C(C(=O)c1ccc(F)cc1)n1ccccc1=O", "note": "(configuration not stated)", "Potency": "inconclusive [inhibitor, single point]"}
